Test results taken from PMC7810945.
No constants are given. Whether binding was seen depends on the method and setting. Binding seen in cells or lysates may run through a third protein. Some entries that bind do so weakly or less than the wild type. For part of these data: Where a sequence is shown, tags or fusion partners need not be part of it.

Assays:
[1] = molecular target: T1, GST‐HLH‐only‐STRA8 (mouse) (UniProt P70278); assay: pull-down; GST or GST fusion proteins on glutathione‐agarose beads incubated 2 h at 4°C with pre-cleared lysates (500 µg‐1 mg) of transfected HEK293T cells or P10 dpp male germ cells; 25 mmol/L Tris‐HCl pH 7.5, 150 mmol/L NaCl, 0.5% Triton‐X100, 1 mmol/L EDTA, 5% glycerol; Western blot; only the target purified
T1 sequence: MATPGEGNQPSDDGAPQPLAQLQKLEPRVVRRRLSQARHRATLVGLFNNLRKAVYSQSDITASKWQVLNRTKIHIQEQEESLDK

GST‐ΔHLH‐STRA8 (mouse) = molecular target: T2, GST‐ΔHLH‐STRA8 (mouse) (UniProt P70278); assay: as above
T2 sequence: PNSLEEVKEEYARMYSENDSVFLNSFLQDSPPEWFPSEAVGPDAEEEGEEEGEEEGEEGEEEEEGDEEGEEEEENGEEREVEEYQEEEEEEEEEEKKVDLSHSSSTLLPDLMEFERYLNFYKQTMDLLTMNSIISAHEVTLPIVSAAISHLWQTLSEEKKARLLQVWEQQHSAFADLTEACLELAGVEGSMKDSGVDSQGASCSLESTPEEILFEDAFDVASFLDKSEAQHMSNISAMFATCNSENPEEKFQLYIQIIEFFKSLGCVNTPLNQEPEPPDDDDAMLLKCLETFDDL

[2] = molecular target: T3, GST‐STRA8 fusion protein (mouse) (UniProt P70278); assay: as above
T3 sequence: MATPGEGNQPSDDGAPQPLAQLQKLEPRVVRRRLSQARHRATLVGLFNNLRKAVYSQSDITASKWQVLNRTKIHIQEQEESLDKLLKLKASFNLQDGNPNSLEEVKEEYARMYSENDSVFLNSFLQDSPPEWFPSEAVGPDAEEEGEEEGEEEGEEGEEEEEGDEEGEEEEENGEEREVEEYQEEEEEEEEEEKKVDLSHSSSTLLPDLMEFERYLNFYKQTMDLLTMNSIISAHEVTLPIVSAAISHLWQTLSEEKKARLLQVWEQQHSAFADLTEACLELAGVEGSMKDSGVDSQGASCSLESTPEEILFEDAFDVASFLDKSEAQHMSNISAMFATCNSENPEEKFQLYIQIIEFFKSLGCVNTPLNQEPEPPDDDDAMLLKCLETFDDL

[3] = molecular target: T4, endogenous STRA8 of P10 dpp male germ cells (mouse (endogenous in P10 dpp male germ cells)) (UniProt P70278); assay: co-IP; endogenous proteins, nuclear extracts of P10 dpp male germ cells; anti‐STRA8 antibody on Dynabeads protein G
T4 sequence: T3 sequence

[4] = molecular target: T5, Myc‐SOHLH1 (pcDNA3‐Myc‐SOHLH1) (mouse) (UniProt Q6IUP1); assay: co-IP; total lysates of transfected HEK293T cells or of transfected P19EC cells treated with 1 µmol/L ATRA for 24 h; anti‐Myc or anti‐FLAG antibody on Dynabeads protein G, 2 h at 4°C; 50 mmol/L Tris‐HCl pH 7.6, 150 mmol/L NaCl, 2 mmol/L EDTA, 0.5% NP‐40, 3% glycerol
T5 sequence: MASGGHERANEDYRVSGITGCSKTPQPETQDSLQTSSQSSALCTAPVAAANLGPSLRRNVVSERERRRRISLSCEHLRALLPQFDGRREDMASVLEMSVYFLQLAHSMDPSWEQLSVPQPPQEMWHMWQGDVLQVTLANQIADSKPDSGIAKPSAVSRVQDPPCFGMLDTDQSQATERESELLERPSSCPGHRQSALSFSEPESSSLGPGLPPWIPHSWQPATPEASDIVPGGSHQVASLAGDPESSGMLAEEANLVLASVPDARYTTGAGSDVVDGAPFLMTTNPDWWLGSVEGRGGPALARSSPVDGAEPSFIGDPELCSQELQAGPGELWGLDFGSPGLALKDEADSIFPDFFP

[5] = molecular target: T6, Myc‐HLH‐only‐STRA8 (mouse) (UniProt P70278); assay: as above
T6 sequence: T1 sequence

Myc‐ΔHLH‐STRA8 (mouse) = molecular target: T7, Myc‐ΔHLH‐STRA8 (mouse) (UniProt P70278); assay: as above
T7 sequence: T2 sequence

[6] = molecular target: T8, Myc‐STRA8 (pcDNA3‐Myc‐STRA8) in HEK293T cells (mouse) (UniProt P70278); assay: as above
T8 sequence: T3 sequence

[7] = molecular target: T9, Myc‐STRA8 (pcDNA3‐Myc‐Stra8) in P19EC cells (mouse) (UniProt P70278); assay: as above
T9 sequence: T3 sequence

B1: Myc‐STRA8 (pcDNA3‐Myc‐STRA8) in HEK293T cells (protein, UniProt P70278 1-393)
chain: T3 sequence
**Q.** Which results are given for B1?
**A.** binding [1]: binds; binding (GST‐ΔHLH‐STRA8 (mouse)): no binding; binding [2]: binds

B2: Myc‐SOHLH1 (pcDNA3‐Myc‐SOHLH1) (protein, UniProt Q6IUP1 1-357)
chain: T5 sequence
**Q.** For B2, which binding [2] is on record?
**A.** The binding was “binds”.

B3: endogenous SOHLH1 of P10 dpp male germ cells (protein, UniProt Q6IUP1 1-357)
chain: T5 sequence
**Q.** Which binding [3] does the source give for B3 here?
**A.** Its binding is “binds”.

**Q.** And the binding [2]?
**A.** The binding was “binds”.

B4: STRA8 without tag (pCMV‐STRA8) in HEK293T cells (protein, UniProt P70278 1-393)
chain: T3 sequence
**Q.** How did the binding [4] turn out when B4 was run?
**A.** Its binding is “binds”.

B5: endogenous STRA8 of P10 dpp male germ cells (protein, UniProt P70278 1-393)
chain: T3 sequence
**Q.** How did the binding [2] turn out when B5 was run?
**A.** The binding was “binds”.

B6: GFP‐STRA8 fusion protein (protein, UniProt P70278 1-393)
chain: T3 sequence
**Q.** What does the source list for B6?
**A.** binding [5]: binds; binding (Myc‐ΔHLH‐STRA8 (mouse)): no binding; binding [6]: binds

B7: endogenous STRA8 of P19EC cells treated with ATRA (protein, UniProt P70278 1-393)
chain: T3 sequence
**Q.** How did the binding [7] turn out when B7 was run?
**A.** Its binding is “binds”.
